# Test results from PubChem BioAssay AID485273 (Sanford-Burnham Center for Chemical Genomics, 2010).
# In all, about 330,000 compounds went through this assay and about 1,500 (0.45%) were called active. This list was built around the results that the source calls inconclusive (neither active nor inactive); the mix of calls is not that of the screen. Rule as the data show it: active = inhibition above about 45% (passing the limit was not always enough); inconclusive = no clear call, values can overlap the other calls.
# Molecular target: Ubiquitin-conjugating enzyme E2 N (Homo sapiens) (UniProt P61088)
# Test: UBC13 polyubiquitin chain formation inhibitors, primary screen, biochemical, TR-FRET, uHTS (AID 485273)
# Conditions: at 20 µM, active compounds read high
# Chain of UniProt P61088 (P61088 whole entry, looked up): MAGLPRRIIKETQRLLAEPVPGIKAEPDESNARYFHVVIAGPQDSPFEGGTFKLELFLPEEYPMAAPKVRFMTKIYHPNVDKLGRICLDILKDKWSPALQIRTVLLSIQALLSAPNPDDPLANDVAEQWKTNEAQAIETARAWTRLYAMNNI
row,SMILES,inhibition
1,CCc1ccccc1OCC(=O)Nc1cccc(S(=O)(=O)NC2=NCCC2)c1,inactive: -0.9%
2,O=C(CCCCn1c(=O)c2ccccc2n(Cc2ccccc2)c1=O)NC1CCN(Cc2ccccc2)CC1,active: 94.2%
3,Cn1c(=O)c2c([nH]c(=S)n2Cc2ccc(Cl)cc2)n(C)c1=O,inconclusive: 72.5%
4,COc1ccc(NC(=S)N/N=C2\CC(C)(C)Oc3ccc(OC)cc32)cc1,inactive: 0%
5,COc1cc(-c2c(C#N)c(N)nc3c2c(C)nn3-c2ccc(C)c(C)c2)cc(OC)c1OC,inconclusive: 46.1%
6,CN(C(=O)COC(=O)c1cc(-c2ccc(Cl)s2)nc2ccccc12)C1CCS(=O)(=O)C1 (stereo not given),inconclusive: 61.6%
7,Cc1ccc2c(c1)[C@H]1[C@H](CO2)[C@H](c2ccccc2)[C@]2(C)C(=O)Nc3ccc(Cl)cc3C(=O)N12,inconclusive: 82.2%
8,COc1cccc(-c2sc3ccc(OC)cc3c2-c2ccc(OCCN(C)C)cc2)c1,active: 84.2%
9,COc1cccc(-c2sc3ccccc3c2-c2ccc(OCCN3CCCC3)cc2)c1,active: 83.8%
10,Cc1ccc(-n2nc3c4c(cccc4c2=O)-c2ccccc2-3)cc1,active: 45.7%
11,CCCCN(CCCC)CCCNC(=O)C12CN(Cc3ccccc3)CC1C(c1cccc([N+](=O)[O-])c1)=NO2 (stereo not given),inconclusive: 103%
12,CCOC(=O)CSc1nc2ccccc2c(=O)n1CCCCCC(=O)NCc1ccco1,active: 46.6%
13,CCOc1cc(/C=N\Nc2nc(Nc3ccccc3)nc(N3CCOCC3)n2)ccc1OC(=O)c1ccco1,inconclusive: 65.6%
14,Cc1ccc(C(=O)CSc2nnc(C)s2)cc1,inconclusive: 62.7%
15,COc1ccc2sc(-c3ccc(S(C)(=O)=O)cc3)c(-c3ccc(SC)cc3)c2c1,inconclusive: 69.4%
16,COc1ccc(CNn2c(C)nc3ccccc3c2=O)cc1,active: 47%
17,COC(=O)c1cc(-c2cc(OC)ccc2OC)nc2c1c(=O)n(C)c(=O)n2Cc1ccccc1,inconclusive: 60.8%
18,Cc1ccccc1OCC(=O)Nc1ccccc1-c1ccccc1,inactive: -0.4%
19,CCn1c(=NC(=O)c2ccc(S(=O)(=O)N3CCOCC3)cc2)sc2cccc(OC)c21,inconclusive: 65.6%
20,CC1(c2ccc(OC(F)F)cc2)NC(=O)N(CC(=O)Nc2ccc(S(N)(=O)=O)cc2)C1=O (stereo not given),inactive: 5.5%
21,CN1CCN(C(=O)CSc2cc(=O)n(C)c3ccccc23)CC1,inactive: 1.8%
22,COCCCNC(=S)NNC(=O)c1ccccn1,active: 88.8%
23,CCn1c(=O)c2c(nc3n2CCCN3c2cccc(C)c2)n(C)c1=O,inactive: 0.7%
24,Nc1c2c(nc3ccc(Br)cc13)N(Cc1ccccc1)CC2,inconclusive: 64.7%
25,S=C(NCc1ccco1)N1CCN(c2ccc(Cl)cc2)CC1,inactive: -1.4%
26,C=CCNc1oc(Cc2cccc3ccccc23)nc1C#N,inactive: 20%
27,COc1ccc(NC(=O)Cn2c(=O)oc3ccccc32)cc1,inactive: 10.8%
28,CCC1CCCCN1CCCNC(=O)CS(=O)(=O)Cc1nc(-c2cccc(OC)c2)oc1C (stereo not given),inactive: 0.3%

row,SMILES,inhibition
1,O=C(Nc1ccc(S(=O)(=O)Nc2ccccn2)cc1)c1cccc(Br)c1,inactive: 3%
2,COc1ccc(-c2cc(Cl)cc3c(=O)c4ccccc4n(C)c23)cc1F,inactive: 16.7%
3,COc1ccc(/C=C/c2nc(N)nc(-c3ccccc3O)n2)cc1OC,inactive: 16%
4,COc1ccc(OC)c(NC(=O)COC(=O)/C=C/c2c(C)nn(C3CCS(=O)(=O)C3)c2Cl)c1 (stereo not given),inconclusive: 76.2%
5,CN1CCN(Cc2nc3ccccc3c(=O)n2Cc2nc(-c3ccc([N+](=O)[O-])cc3)cs2)CC1,active: 79.3%
6,CC(C)c1nc2sc3c(=O)[nH]cnc3c2c2c1CCCC2,inconclusive: 45.9%
7,Cc1cccc(N(C(=O)c2snc(C(N)=O)c2N)C(C(=O)NCC2CCCO2)c2cccs2)c1 (stereo not given),active: 62.1%
8,CC(C)c1ccc(NS(=O)(=O)c2ccc(-n3cccn3)cc2)cc1,inactive: 1.3%
9,CCc1ccc(Nc2n[n+](-c3ccccc3)c(-c3cc(OC)c(OC)cc3Br)s2)cc1,active: 52.5%
10,CCOc1cccc(C2C(C(=O)c3ccc(C)o3)=C(O)C(=O)N2Cc2ccccc2)c1 (stereo not given),inconclusive: 87%
11,CC1=NN(c2ccc(Cl)cc2)C(=O)C1C(c1ccccc1O)c1c(C)[nH]n(-c2ccc(Cl)cc2)c1=O (stereo not given),inactive: -13.6%
12,O=C(Nc1ccc2c(c1)OCO2)C(=O)c1c[nH]c2ccccc12,inactive: -3.4%
13,COc1ccc(OC)c2c1sc(=NC(=O)C1COc3ccccc3O1)n2C (stereo not given),inconclusive: 53.5%
14,COc1ccc(C)c2sc(=NC(=O)c3ccc(C(C)=O)cc3)n(C)c12,inconclusive: 66.8%
15,O=C(O)C(Cc1ccccc1)n1c(=S)[nH]c2ccccc2c1=O (stereo not given),inconclusive: 57.3%
16,CCCN(CCC)CCCNC(=O)c1cc2c(=O)n(CC)c3ccccc3c2s1,active: 47.4%
17,O=C(CSc1nnnn1-c1ccccc1)Nc1ncc(Cc2cccc(Cl)c2Cl)s1,inactive: -22.6%
18,COc1ccc(Cl)cc1C(=O)NNC(=O)COC(=O)CCN=C1NS(=O)(=O)c2ccccc21,inactive: 3.2%
19,Cn1c(=O)c2c(SCC(=O)N3CCN(c4ccccc4)CC3)nc(C3CC3)nc2n(C)c1=O,active: 63.1%
20,CCn1nccc1C(=O)Nc1ccc(C(=O)OC(C)C)cc1,inactive: -4.2%
21,Cc1cc2cc(CNC(=O)C3CCCC3)ccc2n1C,inconclusive: 80.2%
22,Cc1ccccc1OCC(=O)O/N=C(\N)Cc1cccs1,inactive: -10.8%
23,COC(=O)c1ccc(Nc2cc(C)nc(-c3ccccc3O)n2)cc1,inconclusive: 70.8%
24,COc1ccc(C2C(C(C)=O)=C(O)C(=O)N2CCCn2ccnc2)cc1OC (stereo not given),inconclusive: 90.4%
25,CCOc1ccc(CN(C)CC(=O)NCc2ccc(F)cc2)cc1,inactive: -8.5%
26,N#CC1=C(N)SC(N)=C(C#N)C1CCC1CCCCC1,inconclusive: 64.4%
27,COc1cc(/C=C(/C#N)C(=O)Nc2ccc(C)cc2)ccc1Oc1nc(Cl)ncc1F,inconclusive: 87.4%
